Source: PubChem BioAssay AID504706 (National Center for Advancing Translational Sciences (NCATS), 2011)
In all, about 320,000 compounds went through this assay and about 200 (0.062%) were called active. Inconclusive means that the source gave no clear call. Such entries were picked first, then a sample of the others. The call rests on the fitted dose curve; in most records, active means well fitted activation curve with a large enough effect; inconclusive means small, poorly fitted or top-dose-only effect; inactive means no such curve, though single readings can be large or run the other way. Potencies of inconclusive entries are left out as doubtful fits.

Assay: qHTS assay for re-activators of p53 using a Luc reporter; further: nearly all actives have a fitted effect of over 45% in size
Conditions: H1299 p53-A138V BP100-luciferase reporter, luminescence, 24 h; series mostly up to 92.2 µM
In short: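 p53-null H1299 cells stably carrying temperature-sensitive p53-A138V and a BP100-luciferase reporter were pinned with compounds (4-point, 1:5 series) and held 24 hrs at 37 deg C. Luminescence was read 10 min after detection reagent.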
Potency means the concentration at half of the fitted maximal effect; tags describe the fitted curve by direction and shape.

| Compound | Potency |
| --- | --- |
| O=C(CNc1ccccc1)N/N=C/c1ccc2c(c1)OCO2 | inconclusive [activator, single point] |
| O=C(NNC(=O)c1cc2c(s1)CCCC2)c1ccccc1 | inconclusive [activator, partial curve, poor fit] |
| COc1ccccc1CCN1CCCC(CN(C)C(=O)CCC(=O)N(C)C)C1 (stereo unspecified) | inconclusive [activator, single point] |
| Cc1ccc(NC(=S)Nc2ccc(OC(F)F)c(Cl)c2)cc1Cl | inactive |
| N#CC1=C(N)Oc2cc(N)ccc2C1C1CCCCC1 (stereo unspecified) | inactive |
| NC(=O)CC(NC(=O)Cc1ccc(Cl)cc1)c1ccc(NCC2CC2)c([N+](=O)[O-])c1 (stereo unspecified) | inactive |
| N=C1C(c2nc3ccccc3s2)=C(O)CN1Cc1ccccc1 | inconclusive [activator, partial curve, poor fit] |
| CCOC(=O)C1CCCN(C(=O)COC(=O)c2cccs2)C1 (stereo unspecified) | inconclusive [activator, partial curve, poor fit] |
| Cc1ccc(C(=O)NCC(=O)N2CCCCCCC2)cc1C | inconclusive [activator, single point] |
| O=C(NC(=S)Nc1ccccc1Cl)c1cncc(Br)c1 | inconclusive [activator, single point] |
| Oc1ccc(-c2nc3ccc4ccccc4c3c3c2CCC3)cc1O | inconclusive [activator, full curve, poor fit] |
| C/C=C(\C)c1nnc(NC(=O)OCC)s1 | inconclusive [activator, full curve, poor fit] |
| Cc1c(C(=O)N/N=C/c2cccs2)nc2ccccn12 | inconclusive [activator, full curve, poor fit] |
| c1ccc2c(c1)nc(NCC1CCCO1)c1nnnn12 (stereo unspecified) | inconclusive [activator, single point] |
| O=C(CSc1ccc(-c2ccccn2)nn1)NC1CCCC1 | inactive |
| Cn1c(=Nc2ccccc2)sc2ccccc21 | inactive |
| Cc1cnc(C(=O)Nc2nnc(C(C)C)s2)cn1 | inconclusive [activator, full curve, poor fit] |
| COc1ccc(/C=C/C(=O)Nc2cc(C)nn2-c2nc3ccccc3[nH]2)cc1 | inconclusive [activator, full curve, poor fit] |
| N#Cc1cccc(NC(=O)CCC2CCCC2)c1 | inconclusive [activator, single point] |
| COCCCN=C1NN=C(c2cc(C)n(Cc3ccco3)c2C)CS1 | inconclusive [activator, full curve, poor fit] |
| N/C(=N\OC(=O)COc1ccc(Br)cc1Cl)c1cccnc1 | inconclusive [activator, full curve, poor fit] |
| Cc1cc(C)nc(-n2nc(C)c(Sc3ccc(F)cc3)c2N)n1 | inconclusive [activator, partial curve, poor fit] |
| CN(CC(=O)NCc1ccco1)CC(=O)Nc1c(Cl)cccc1Cl | inactive |
| Nc1ccc2oc(=O)c(-c3ccccc3)cc2c1 | inconclusive [activator, single point] |

| Compound | Potency |
| --- | --- |
| O=C(Nc1ccc(N2CCOCC2)cc1)Nc1ccc(Cl)c(Cl)c1 | inconclusive [activator, single point] |
| CC(C)c1c(C(=O)N/N=C/c2ccc(Cl)cc2Cl)nnn1-c1nonc1N | inactive |
| CC(=O)c1sc(N/N=C\c2ccccc2O)nc1C | inconclusive [activator, full curve] |
| COc1cc(/C=C(\C#N)C(=O)N2CCOCC2)ccc1OCc1ccccc1 | inconclusive [activator, single point] |
| CC(=O)OC1C2CCC1C([N+]1(C)CCCCC1)CC2 (stereo unspecified) | inactive |
| COc1ccc2nc(/C=N/NC(=O)[C@H](C)NC(=O)OC(C)(C)C)ccc2c1 | inconclusive [activator, partial curve, poor fit] |
| CC(C)n1nnnc1SCC(=O)Nc1ccc2c(c1)OCO2 | inconclusive [activator, partial curve, poor fit] |
| CCCC(C(=O)NCCC(C)C)N(Cc1ccc(OC)cc1)C(=O)c1snc(C(N)=O)c1N (stereo unspecified) | inactive |
| CC(=O)c1cccc(OCc2cc(C(=O)N(C)CCc3ccccn3)no2)c1 | inactive |
| CC(C)(C)c1ccc(-c2nnc(N)s2)cc1 | inactive |
| CCOc1ccc(-c2cc(C(=O)O)c3ccccc3n2)c(OCC)c1 | inconclusive [activator, single point] |
| COc1ccc(N2Cc3ccc(OC)c(OC)c3C2=O)cc1 | inconclusive [activator, partial curve, poor fit] |
| CCOc1ccc(/C=N/N(C)c2ccccc2)cc1OC | inconclusive [activator, full curve, poor fit] |
| CC(=O)N(/N=C1\Sc2ccccc2C1=O)c1cccc(C)c1 | inconclusive [activator, single point] |
| CCc1ccc2[nH]c(C(=O)N(C)c3ccc(F)cc3F)cc2c1 | inactive |
| O=C(O)c1cccc(N/N=C/c2cccc3ccccc23)c1 | inconclusive [activator, full curve, poor fit] |
| O=C(COC(=O)c1c(F)cccc1Cl)NC1CCCCC1 | inactive |
| O=[N+]([O-])c1cc([N+](=O)[O-])c(Oc2cc(F)ccc2F)cc1NN1CCCCC1 | inactive |
| CCc1cc2cc(C(=O)Nc3ccccc3F)sc2s1 | inconclusive [activator, full curve, poor fit] |
| Cc1ccc(Nc2ncnc3c2cnn3C)cc1 | inconclusive [activator, full curve, poor fit] |
| Cc1ccc2oc(C(=O)Nc3nonc3C)c(C)c2c1 | inconclusive [activator, partial curve, poor fit] |
| Fc1ccccc1-c1cc2ncccc2cn1 | inconclusive [activator, full curve, poor fit] |
| CCP(=O)(CC)C(C)(C)CP(=O)(c1ccccc1)c1ccccc1 | inconclusive [activator, single point] |
| CCN(CC)S(=O)(=O)c1cc(NC(=O)C(C)N2CCN(Cc3ccc4c(c3)OCO4)CC2)ccc1C (stereo unspecified) | inactive |

| Compound | Potency |
| --- | --- |
| Cc1occc1C(=O)Nc1ccc(Br)cc1F | inconclusive [activator, partial curve, poor fit] |
| O=C(NCCc1ccccc1)c1cnc2ccccn2c1=O | inactive |
| C=CCNc1ncnc2c1[nH]c1ccc(C)cc12 | inconclusive [activator, full curve, poor fit] |
| Clc1ccccc1Cn1nnc(-c2ccccc2)n1 | inconclusive [activator, single point] |
| CCOC(=O)c1ccc(NC(=O)c2cc3c(s2)CCC3)cc1 | inactive |
| CNC(=O)c1c(NC(=O)c2ccc(S(=O)(=O)N(C)c3ccccc3)cc2)sc2c1CCN(C(C)C)C2 | inactive |
| C/C(=N\NC(=S)NC(C)C)c1ccc(Cl)s1 | inconclusive [activator, full curve, poor fit] |
| CCOC(=O)/C(=N\Nc1cccc(Cl)c1)Sc1nnc(-c2ccc(OC)cc2)n1C | inactive |
| CCOc1ccc(C2CC(c3cccc(C)c3)n3nc(N)nc3N2)cc1 (stereo unspecified) | inconclusive [activator, single point] |
| C#CCNC(=O)/C=C/c1ccc(C)cc1 | inconclusive [activator, partial curve, poor fit] |
| O=C(NC(=O)N1CCN(c2ccccc2)CC1)c1ccc(Cl)cc1 | inconclusive [activator, partial curve, poor fit] |
| COCc1cc(C)nc(OCC(=O)N/N=C/c2ccccc2O)c1C#N | inactive |
| Cc1cccc(CSc2ccc(-c3cccs3)nn2)c1 | inconclusive [activator, full curve, poor fit] |
| O=S(=O)(Nc1ccc2c(c1)OCCO2)c1cccc2nsnc12 | inconclusive [activator, partial curve, poor fit] |
| CC1=CC(=C2N=C(c3ccccc3)OC2=O)C=C(C)O1 | inconclusive [activator, single point] |
| C/C(=N\NC(=O)c1cccc2ccccc12)c1cccs1 | inconclusive [activator, single point] |
| O=C(/C=C/c1cccc2ccccc12)NCCC1=CCCCC1 | inconclusive [activator, partial curve, poor fit] |
| CC(=O)c1csc(COc2ccc(Cl)cc2)n1 | inconclusive [activator, full curve, poor fit] |
| N/C(=N\OC(=O)C12CC3CC(CC(C3)C1)C2)c1ccccn1 | inconclusive [activator, full curve, poor fit] |
| O=c1c2ccccc2nnn1CSc1ccccc1F | inconclusive [activator, partial curve, poor fit] |
| Cc1ccc2nc(SCC(=O)NCc3ccco3)c(C#N)cc2c1 | inconclusive [activator, partial curve] |
| Cc1ccc(NC(=O)c2ccc([N+](=O)[O-])cc2Cl)nc1 | inconclusive [activator, full curve, poor fit] |
| Cc1cccc(C)c1NC(=O)CN1C(=O)C2CC=CCC2C1=O (stereo unspecified) | inactive |
